From the supplement of paper PMC12217912
This is one part of the list. Sequences were assembled here from the parent chain. Values near 0.05 are background.

B1: TEV protease; numbered along this chain (parent)
chain: MGESLFKGPRDYNPISSSICHLTNESDGHTTSLYGIGFGPFIITNKHLFRRNNGTLVVQSLHGVFKVKDTTTLQQHLVDGRDMIIIRMPKDFPPFPQKLKFREPQREERICLVTTNFQTKSMSSMVSDTSCTFPSGDGIFWKHWIQTKDGQCGSPLVSTRDGFIVGIHSASNFTNTNNYFTSVPKNFMELLTNQEAQQWVSGWRLNADSVLWGGHKVFMVKPEEPFQPVKEATQL

Variants of: B1
Test: raw area under fraction-flipped curve 0-4 h after induction (AUC4h, not background-subtracted), DNA-recorder readout of cleavage of the substrate (dimensionless); higher = more cleavage of the substrate by the protease variant
Conditions: temperature: 34 °C; time window: 0-4 h after rhamnose induction
Method: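 In vivo DNA recorder in E. coli TOP10(DE3) ΔrhaA at 34 °C. Each TEVp single-site mutant (parent TEVp 0) is paired with a single-site variant of the 7-mer TEVs (canonical ENLYFQ|S). The substrate sits between flexible linkers in a Bxb1-sfGFP-TEVs-SsrA fusion, so cleavage stabilises Bxb1 and speeds flipping of a recombination array, read by NGS. The value is the raw area under the fraction-flipped curve over 0-4 h after rhamnose induction (AUC4h), with ≥20 reads per time point. It is not background-subtracted; inactive controls average about 0.047.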
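Note: Bxb1 expression induced with 0.2% (w/v) L-rhamnose at OD600 near 0.5, cultures sampled hourly, flipped fraction per protease–substrate barcode pair counted by paired-end Illumina sequencing.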

Variant | area with substrate GNLYFQS | area with substrate HNLYFQS | area with substrate TNLYFQS | area with substrate VNLYFQS | area with substrate YNLYFQS | area with substrate LNLYFQS | area with substrate MNLYFQS | area with substrate NNLYFQS | area with substrate PNLYFQS | area with substrate QNLYFQS
S135M | 0.0662 | 0.0446 | 0.0629 | 0.0518 | 0.0621 | – | – | – | – | –
L156A | 0.0409 | 0.0551 | 0.0566 | – | 0.0626 | 0.0552 | 0.0621 | 0.0788 | 0.0607 | 0.0813
M188Q | 0.0511 | 0.0663 | – | – | 0.0599 | 0.124 | – | – | 0.0745 | –
D91G | 0.0662 | – | 0.0737 | – | 0.0742 | 0.0638 | 0.0683 | – | – | –
T159H | 0.0535 | 0.0703 | 0.0669 | – | 0.0633 | 0.0738 | – | – | 0.0672 | –
D82S | 0.06 | – | – | – | – | – | 0.0563 | – | – | –
Q118E | 0.0664 | 0.058 | 0.0338 | – | 0.0796 | 0.0773 | – | – | 0.0885 | –
I84Y | 0.131 | 0.0494 | – | 0.0465 | – | 0.0516 | – | – | 0.055 | –
K185Y | 0.0723 | 0.0673 | 0.087 | – | 0.048 | 0.0573 | – | – | – | –
N178L | 0.0521 | 0.0771 | – | – | 0.0713 | – | – | – | – | –
R109M | 0.0654 | 0.0636 | – | – | – | – | – | – | – | –
L33T | – | 0.0523 | 0.0566 | – | – | 0.0803 | – | 0.0629 | – | –
S18D | – | 0.0578 | – | 0.0553 | – | 0.0564 | – | 0.0552 | 0.0561 | –
R102F | 0.034 | 0.0336 | 0.0547 | – | – | 0.0609 | – | 0.0352 | 0.0619 | –
L191H | 0.0713 | 0.052 | 0.0751 | – | 0.0413 | 0.0679 | – | – | – | –
T233F | 0.0593 | 0.0577 | 0.0634 | – | – | 0.058 | 0.0629 | 0.0658 | 0.0677 | –
D149A | 0.0714 | 0.0689 | 0.0547 | – | 0.0928 | 0.0686 | – | – | – | 0.0585
R81Q | 0.0385 | 0.0664 | – | – | – | 0.0645 | – | – | 0.0532 | –
A207F | 0.0411 | 0.0491 | 0.0483 | – | 0.0737 | 0.0943 | – | 0.0645 | – | –
R50S | – | 0.0635 | – | – | – | – | – | 0.0621 | 0.057 | –
K216Y | 0.0695 | 0.0551 | 0.0662 | – | 0.0429 | 0.0698 | 0.0654 | 0.0402 | – | –
K216E | 0.0355 | 0.0605 | 0.0688 | – | – | – | 0.0328 | – | 0.0685 | –

Variant | area with substrate GNLYFQS | area with substrate HNLYFQS | area with substrate TNLYFQS | area with substrate VNLYFQS | area with substrate YNLYFQS | area with substrate LNLYFQS | area with substrate MNLYFQS | area with substrate NNLYFQS | area with substrate PNLYFQS | area with substrate QNLYFQS
W212I | 0.0649 | – | – | 0.0824 | 0.0809 | – | 0.0644 | – | 0.0799 | –
V58W | – | 0.0496 | 0.0206 | – | 0.0487 | – | 0.0345 | – | – | –
T31M | – | 0.0689 | 0.0988 | 0.077 | 0.0794 | – | 0.0348 | – | – | –
D208A | 0.0572 | – | – | – | – | – | 0.0617 | – | 0.0351 | –
I167P | 0.0233 | 0.0511 | 0.0504 | – | 0.0539 | 0.0525 | – | 0.0365 | 0.0443 | –
W203T | 0.0575 | 0.0601 | 0.0543 | – | – | – | 0.0677 | 0.066 | 0.0522 | 0.066
I86H | 0.0413 | 0.0411 | – | – | – | 0.0356 | 0.0383 | – | 0.0306 | –
I85E | 0.056 | 0.0429 | 0.0492 | 0.0433 | – | – | – | – | – | –
G136I | 0.0718 | – | 0.0552 | – | – | 0.0577 | – | – | – | –
G150S | 0.0518 | 0.061 | 0.0567 | – | 0.0663 | 0.0668 | – | – | – | –
Q151K | 0.0652 | 0.0561 | 0.0598 | – | – | – | 0.0249 | – | 0.0606 | –
G153H | 0.0453 | – | 0.0479 | – | 0.0469 | 0.0559 | 0.0543 | 0.0453 | 0.0407 | –
P93E | 0.0717 | 0.0528 | 0.0672 | – | – | – | 0.0591 | – | 0.0989 | –
P93G | 0.0659 | 0.0684 | 0.0707 | 0.0489 | 0.0625 | 0.0779 | – | 0.0563 | 0.067 | 0.0928
S127R | 0.0692 | 0.0544 | 0.0594 | – | 0.0667 | 0.0627 | 0.055 | 0.0677 | – | –
Q146Y | 0.0787 | 0.0447 | 0.0768 | – | 0.0562 | 0.0615 | 0.0651 | – | 0.0687 | –
S171N | 0.06 | 0.0579 | 0.0608 | – | – | 0.0537 | 0.0659 | – | – | –
H62G | – | 0.0843 | 0.0593 | – | 0.0469 | 0.0776 | 0.0642 | – | 0.0755 | –
H62T | – | 0.0613 | 0.0489 | – | – | 0.0765 | – | – | 0.0575 | –
K7C | – | 0.0592 | – | – | – | – | 0.0722 | – | 0.0693 | –
G8H | – | 0.0571 | – | – | – | 0.0801 | – | 0.0508 | 0.081 | –
T114G | 0.086 | 0.0597 | 0.0911 | – | 0.0601 | 0.0639 | – | – | 0.0388 | –

Same assay, conditions: temperature: 34 °C; time window: 0-4 h after rhamnose induction

Variant | area with substrate SNLYFQS | area with substrate WNLYFQS | area with substrate INLYFQS | area with substrate KNLYFQS | area with substrate RNLYFQS
L156A | 0.0626 | 0.0712 | – | – | –
M188Q | 0.0573 | – | 0.0648 | – | –
D91G | – | 0.0653 | 0.0725 | 0.0769 | 0.0682
T159H | – | 0.0585 | 0.0653 | – | –
D82S | – | 0.0578 | – | – | –
Q118E | 0.044 | 0.0628 | 0.056 | – | –
I84Y | – | 0.068 | – | 0.0091 | –
K185Y | – | 0.069 | – | – | –
N178L | – | 0.0837 | 0.0618 | – | –
R109M | – | – | – | 0.079 | 0.0624
L33T | 0.06 | – | – | 0.0688 | –
S18D | 0.0677 | 0.0494 | 0.0605 | 0.0577 | –
R102F | 0.0624 | 0.0401 | 0.0376 | – | –
L191H | 0.0359 | 0.0389 | 0.0628 | – | –
T233F | 0.069 | 0.0536 | – | 0.0655 | –
D149A | – | 0.0425 | 0.0238 | 0.0553 | 0.0566
R81Q | 0.0662 | – | – | – | –
A207F | 0.0519 | – | – | – | –
R50S | – | 0.0558 | – | – | –
K216Y | 0.0627 | 0.0674 | 0.0563 | – | 0.062

Variant | area with substrate SNLYFQS | area with substrate WNLYFQS | area with substrate INLYFQS | area with substrate KNLYFQS | area with substrate RNLYFQS
W212I | – | 0.06 | 0.0821 | 0.0776 | –
T31M | – | 0.0615 | 0.0517 | 0.0622 | –
D208A | – | – | – | – | 0.089
I167P | 0.0176 | 0.0462 | – | – | –
W203T | 0.0627 | 0.0587 | – | – | 0.0291
I86H | – | – | 0.0482 | – | –
I85E | – | 0.0452 | – | – | 0.0672
G136I | – | 0.0539 | 0.0536 | 0.0765 | –
G150S | 0.0573 | – | 0.067 | 0.0629 | –
Q151K | – | 0.0507 | – | – | –
G153H | 0.065 | 0.0467 | 0.056 | 0.0478 | –
P93E | 0.0687 | 0.0648 | – | – | –
P93G | – | 0.0568 | 0.0635 | 0.063 | –
S127R | 0.0713 | 0.0576 | 0.0847 | 0.0645 | 0.0587
Q146Y | 0.0629 | 0.0618 | 0.0508 | 0.0726 | –
S171N | 0.0587 | 0.0564 | 0.0668 | – | –
H62G | 0.0582 | 0.0604 | – | – | –
H62T | 0.0724 | 0.05 | 0.0651 | – | 0.0702
K7C | – | 0.0847 | 0.0577 | – | –
T114G | 0.074 | 0.0596 | – | 0.066 | –
